Measured values: PubChem BioAssay AID1345082 (National Center for Advancing Translational Sciences (NCATS), 2018)
About 4,000 (4.3%) of roughly 94,000 compounds were called active. Inconclusive results, whose numbers are uncertain, are shown with a selection of clear calls. The call rests on the fitted dose curve; in most records, active means well fitted inhibition curve with a large enough effect; inconclusive means small, poorly fitted or top-dose-only effect; inactive means no such curve, though single readings can be large or run the other way. Potencies of inconclusive entries are doubtful fits and often do not repeat.

experiment: Cytotoxic Profiling in NIH 3T3 Cell Line of Diverse Libraries Using Quantitative High-Throughput Screening; settings: NIH 3T3 viability, CellTiter-Glo ATP luminescence, 48-72 h; activity change, negative = cytotoxicity: at 96.7 µM (top of the series) unless noted; series mostly up to 96.7 µM; further: nearly all actives have a fitted effect of over 55% in size
Method in brief: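 NIH 3T3 cells at 400 cells/well received 23 nL of compound by pintool and were incubated 48 or 72 h at 37 °C. Viability was read as ATP-coupled CellTiter-Glo luminescence.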
On the % scale 0 is the no-effect control and ±100 the full control effect; potency means the concentration at half of the fitted maximal effect; tags describe the fitted curve by direction and shape.

SMILES	Potency	activity change, negative = cytotoxicity	outcome
CC(=O)N1CCCN(C(=O)c2cnc3c(c2)N(Cc2ccccc2)CCC3)CC1	inconclusive: 50.1 µM [inhibitor, full curve, poor fit]	–	–
Cn1cc(CN2CCOC[C@H]2c2ncc(-c3cccc(F)c3)[nH]2)c2ccccc21	active: 39.8 µM	–	–
Cc1ccccc1C(=O)NCCNC(=O)c1ccc(-c2cccc(C(F)(F)F)c2)cc1	–	inactive: -21.6%	–
COc1ccccc1-c1cc(-c2cccs2)nc2c(C)noc12	inconclusive: 56.2 µM [inhibitor, partial curve, poor fit]	–	–
CC(C)CC(=O)N1CCC2(CC1)CN(Cc1ccccc1)CC2CO (configuration not stated)	inconclusive: 70.8 µM [inhibitor, single point]	–	–
Cc1ccccc1C(=O)N1CCCC1C(=O)N1CCC(c2ccccc2)CC1 (configuration not stated)	–	inactive: -23.2%	–
O=C1N(Cc2ccccn2)C[C@H]2CN(Cc3ccc(C(F)(F)F)cc3)CCN12	inconclusive: 100 µM [inhibitor, partial curve, poor fit]	–	–
O=c1c2nc(-c3ccccc3)ccc2ncn1-c1ccc(F)cc1F	active: 28.2 µM	–	–
CCOC(=O)C1CCCN(C(=O)c2ccc3oc(-c4ccnc(Cl)c4)nc3c2)C1 (configuration not stated)	inconclusive: 50.1 µM [inhibitor, partial curve, poor fit]	–	–
Cc1cccc(CN2CCCN(Cc3ccncc3)C(c3ccccc3)CC(=O)NCC2)c1 (configuration not stated)	inconclusive: 44.7 µM [inhibitor, partial curve, poor fit]	–	–
COc1ccc(CNC[C@H]2COCc3nc4cc(F)ccc4n32)cn1	inconclusive: 100 µM [inhibitor, partial curve, poor fit]	–	–
Cn1nc(C2CC2)cc1NC(=O)C1CCCC1	–	inactive: -12.8% [at 138 µM]	–
COc1cc(C(=O)N2CCC(n3c(=O)[nH]c4ccccc43)CC2)nc2ccccc12	inconclusive: 50.1 µM [inhibitor, partial curve, poor fit]	–	–
CC(C)c1nc2cc(C(=O)N3CCCC(c4ccccc4)C3)ccc2o1 (configuration not stated)	inconclusive: 89.1 µM [inhibitor, single point]	–	–
COCC(=O)NC1CCCN(c2ccc3nnc(-c4ccccc4)n3n2)C1 (configuration not stated)	inconclusive: 70.8 µM [inhibitor, partial curve, poor fit]	–	–
Cc1cc(=O)n(CC(=O)Nc2ccccc2C)c(N2CCc3ccccc3C2)n1	inconclusive: 44.7 µM [inhibitor, partial curve, poor fit]	–	–
O=C1NC2(CCN([S+](=O)([O-])c3ccccc3)C2)Oc2ccccc21 (configuration not stated)	inconclusive: 56.2 µM [inhibitor, partial curve, poor fit]	–	–
COc1ccc(CNC(=O)C2CCCN(Cc3cccc(-c4cccc(C)c4)c3)C2)cc1 (configuration not stated)	active: 28.2 µM	–	–
Cc1ccc2c(C(=O)N3CCOCC3)cnn2c1	inconclusive: 89.1 µM [inhibitor, partial curve, poor fit]	–	–
O=C1[C@@H]2C[C@@H](CN2Cc2ccccc2)Oc2ccccc2N1CC1CC1	inconclusive: 112 µM [inhibitor, single point]	–	–
Cc1ccc(-n2c(C3CCN(C(=O)CC4CCCCC4)CC3)n[nH]c2=O)cc1	inconclusive: 2.82 µM [inhibitor, full curve, poor fit]	–	–

SMILES	Potency	activity change, negative = cytotoxicity	outcome
CN(C)c1cccc(C(=O)NCC2CCN(c3cc(-c4ccccc4)[nH]n3)CC2)c1	inconclusive: 56.2 µM [inhibitor, partial curve, poor fit]	–	–
CC(C)C(=O)NC1CCCN(c2ccc3nnc(-c4ccccc4)n3n2)C1 (configuration not stated)	–	inactive: -31.5%	–
Cn1nccc1C(O)c1cc2n(n1)CCN(S(=O)(=O)c1ccccc1)C2 (configuration not stated)	inconclusive: 89.1 µM [inhibitor, single point]	–	–
O=C(NC[C@H]1Cn2c(-c3ccc4c(c3)OCO4)cnc2CO1)Nc1ccccc1	inconclusive: 89.1 µM [inhibitor, partial curve, poor fit]	–	–
COc1ccc(-c2cc(N3CCN(C(=O)c4ccc(C#N)cc4)CC3)n[nH]2)cc1	inconclusive: 10 µM [inhibitor, full curve]	–	–
O=C1COc2ccc(OCC3CC3)nc2CN1Cc1ccccc1	inconclusive: 89.1 µM [inhibitor, partial curve]	–	–
CC1Oc2ccc(NC(=O)C3CCCC3)cc2CN(Cc2ccc(F)cc2)C1=O (configuration not stated)	active: 25.1 µM	–	–
COCCCNC(=O)C1CCN(Cc2ccccc2-c2ccccc2F)CC1	inconclusive: 79.4 µM [inhibitor, partial curve, poor fit]	–	–
O=c1cc(-c2ccccn2)oc2c(NC3CCOCC3)nccc12	active: 14.1 µM	–	–
O=C(Cc1ccc(C(F)(F)F)cc1)NC1CCN(Cc2cccc(-c3cccs3)c2)CC1	inconclusive: 7.94 µM [inhibitor, full curve, poor fit]	–	–
CC(C)c1ccc(NC(=O)O[C@@H]2CO[C@H]3[C@@H]2OC[C@@H]3NS(=O)(=O)c2cccs2)cc1	inconclusive: 50.1 µM [inhibitor, partial curve, poor fit]	–	–
O=C(c1ccc(F)cc1Cl)N1CCN(c2cc(C(F)(F)F)ncn2)CC1	–	inactive: -23.7%	–
CCOC(=O)c1ccc(NC(=O)c2ccc3c(c2)N(CC)C2CCCCN2C3=O)cc1 (configuration not stated)	inconclusive: 22.4 µM [inhibitor, full curve, poor fit]	–	–
O=C(CC1CCCC1)N1CCCC(c2noc(COc3ccccc3)n2)C1 (configuration not stated)	inconclusive: 50.1 µM [inhibitor, partial curve, poor fit]	–	–
O=C(CCC1CCCC1)N1CCC(N2C(=O)[C@H]3CN(Cc4ccccc4)C[C@H]3C2=O)CC1	inconclusive: 56.2 µM [inhibitor, partial curve, poor fit]	–	–
COc1ccc(C(=O)NC2CCN(c3cc(-c4cccs4)[nH]n3)CC2)cc1F	inconclusive: 44.7 µM [inhibitor, partial curve, poor fit]	–	–
COCCn1cnc2ccc(-c3ccccc3)nc2c1=O	inconclusive: 112 µM [inhibitor, partial curve]	–	–
COC(=O)C1=C(C)N=C2SC=C(CC(=O)NCc3ccccc3F)N2C1c1ccccc1Cl (configuration not stated)	inconclusive: 50.1 µM [inhibitor, partial curve, poor fit]	–	–
CCC(COC)NC(=O)c1ccccc1OC1CCN(C(=O)COC)CC1 (configuration not stated)	–	–	inactive
CCC1Oc2ccc(NC(=O)Cc3ccccc3)cc2CN(Cc2ccc(OC)cc2)C1=O (configuration not stated)	inconclusive: 39.8 µM [inhibitor, partial curve]	–	–
C[S+](=O)([O-])N1Cc2ccccc2CC2(CCN(Cc3cccnc3)CC2)C1	inconclusive: 70.8 µM [inhibitor, single point]	–	–

SMILES	Potency	activity change, negative = cytotoxicity	outcome
CCN(C(=O)c1cc(-c2ccccc2C(F)(F)F)nc2c1cnn2C)c1ccccc1	inconclusive: 15.8 µM [inhibitor, full curve, poor fit]	–	–
COCCN1CCC(N2CCN(C(=O)C3CCCC3)CC2)C1=O (configuration not stated)	–	inactive: -1.83%	–
O=C1CCN(CC(O)COc2ccccc2)c2ccc(F)cc2CN1Cc1ccccc1 (configuration not stated)	inconclusive: 44.7 µM [inhibitor, partial curve, poor fit]	–	–
CN(Cc1ccc(N2CCCCC2)cc1)C(=O)CCC[C@H]1NC[C@@H]2C[C@H]1CN(Cc1ccccc1)C2	active: 17.8 µM	–	–
CC(=O)NC1CCN(c2ccnc3ccnn23)CC1	–	inactive: -3.12%	–
CCN1c2cc(C(=O)Nc3cccc(Cl)c3C)ccc2C(=O)N2CCCCCC21 (configuration not stated)	inconclusive: 50.1 µM [inhibitor, partial curve, poor fit]	–	–
O=C(c1ccccc1Cl)N1CCC(c2n[nH]c(=O)n2-c2ccccc2)CC1	inconclusive: 14.1 µM [inhibitor, full curve]	–	–
COCCCNC(=O)C1CCCN(c2ccnc3ccnn23)C1 (configuration not stated)	inconclusive: 89.1 µM [inhibitor, partial curve, poor fit]	–	–
C#CCNC(=O)c1ccc2nccn2c1	–	–	inactive [at 174 µM]
Cc1nc2cccnc2n1CC1CCCN(S(=O)(=O)Cc2ccccc2)C1 (configuration not stated)	inconclusive: 50.1 µM [inhibitor, partial curve, poor fit]	–	–
c1ccc(CN2C[C@H]3CCN(C4CCCC4)C[C@H]32)cc1	inconclusive: 44.7 µM [inhibitor, partial curve, poor fit]	–	–
Cc1cnc(CCNC(=O)Nc2ccccc2F)n1C1CCC1	inconclusive: 56.2 µM [inhibitor, partial curve, poor fit]	–	–
O=c1n(-c2ccc([N+](=O)[O-])cc2)nc2n1CCN(Cc1ccc(OC(F)(F)F)cc1)C2	inconclusive: 44.7 µM [inhibitor, partial curve, poor fit]	–	–
O=C(CN1Cc2nc(-c3cc4ccccc4o3)ccc2OCC1=O)N1CCCC1	inconclusive: 112 µM [inhibitor, single point]	–	–
Cn1cnc(S(=O)(=O)N[C@H]2CCN(C(=O)c3ccco3)[C@H](C(=O)N[C@H](Cc3ccccc3)C(N)=O)C2)c1	–	inactive: 3.91%	–
O=C1NCc2ccccc2CC12CCN(Cc1ccccc1OC(F)(F)F)C2 (configuration not stated)	inconclusive: 50.1 µM [inhibitor, partial curve, poor fit]	–	–
COc1ccc(CN2CCc3nc(C4CC4)nc(-c4ccc(O)cc4)c3CC2)cc1	inconclusive: 50.1 µM [inhibitor, partial curve, poor fit]	–	–
C[C@H]1CCCN1C(=O)c1nnc(COc2ccc(F)c(F)c2)n1-c1cccnc1	active: 25.1 µM	–	–
Cc1ccc(NC(=O)c2ccc3nc(-c4ccncc4)oc3c2)cc1	–	inactive: -16.3% [at 138 µM]	–
Cc1ccc(C(=O)N2CCC(Cc3nc(-c4ccccc4)no3)CC2)cn1	inconclusive: 7.08 µM [inhibitor, full curve, poor fit]	–	–
